# Data taken from paper PMC4336329 (PLoS ONE, 2015).
# Among all 310,000 compounds or so, about 14,000 (4.5%) showed an effect of 50% or more. The effect is printed as a negative number. The list shows a part of the results.
# Molecular target: human ether-à-go-go-related gene (hERG) potassium channel (human, UniProt Q12809)
# Assay: primary screen, population patch clamp on CHO cells stably expressing hERG
# 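Also: peak tail current of the secondary pulse compared with the same well before compound.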
# human ether-à-go-go-related gene (hERG) potassium channel, sequence (Q12809 whole entry, looked up): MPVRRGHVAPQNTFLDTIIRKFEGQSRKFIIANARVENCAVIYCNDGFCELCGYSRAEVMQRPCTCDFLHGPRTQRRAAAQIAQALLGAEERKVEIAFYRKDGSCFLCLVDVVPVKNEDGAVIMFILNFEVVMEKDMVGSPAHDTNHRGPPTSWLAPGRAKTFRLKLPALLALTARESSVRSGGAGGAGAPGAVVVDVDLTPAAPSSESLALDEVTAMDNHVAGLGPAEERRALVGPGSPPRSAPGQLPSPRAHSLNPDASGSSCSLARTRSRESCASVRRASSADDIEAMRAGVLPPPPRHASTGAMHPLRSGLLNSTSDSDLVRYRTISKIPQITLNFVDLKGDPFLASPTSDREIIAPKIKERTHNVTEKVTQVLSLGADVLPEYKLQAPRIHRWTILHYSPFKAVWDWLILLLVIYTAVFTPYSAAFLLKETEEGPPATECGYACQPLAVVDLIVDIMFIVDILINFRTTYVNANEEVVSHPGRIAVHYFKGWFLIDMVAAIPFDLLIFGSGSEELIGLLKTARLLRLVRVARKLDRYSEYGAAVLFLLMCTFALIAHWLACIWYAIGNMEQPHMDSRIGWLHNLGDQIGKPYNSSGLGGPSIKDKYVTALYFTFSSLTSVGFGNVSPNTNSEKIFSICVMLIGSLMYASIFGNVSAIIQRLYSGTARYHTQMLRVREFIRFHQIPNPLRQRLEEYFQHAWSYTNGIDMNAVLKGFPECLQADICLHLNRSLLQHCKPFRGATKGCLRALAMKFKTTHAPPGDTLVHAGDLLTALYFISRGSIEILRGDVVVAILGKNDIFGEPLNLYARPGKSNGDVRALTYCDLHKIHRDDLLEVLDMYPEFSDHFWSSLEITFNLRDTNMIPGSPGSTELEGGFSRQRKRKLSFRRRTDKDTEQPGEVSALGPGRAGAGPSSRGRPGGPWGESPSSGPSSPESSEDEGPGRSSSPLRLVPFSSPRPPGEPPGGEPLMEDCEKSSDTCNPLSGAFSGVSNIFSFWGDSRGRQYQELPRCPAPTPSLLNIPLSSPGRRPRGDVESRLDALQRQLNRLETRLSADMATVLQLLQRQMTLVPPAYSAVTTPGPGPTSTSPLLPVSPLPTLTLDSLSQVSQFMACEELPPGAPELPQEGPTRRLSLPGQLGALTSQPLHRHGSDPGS
row,SMILES,"hERG current change (%, negative = inhibition) at 10uM [%]"
1,COc1ccc(-c2csc(N(Cc3ccco3)C(=O)c3cccs3)n2)cc1,-3.17
2,CCOC(=O)C1CCN(C(=O)CCn2c(=O)[nH]c3ccsc3c2=O)CC1,-2.41
3,COc1ccc(/C=N/NC(=O)c2cccnc2)cc1CN1CCOCC1,13.6
4,C/C(=N\NC(=O)Cn1cc([N+](=O)[O-])cn1)c1ccc(O)cc1,-5.56
5,CNc1nnc(C(F)(F)F)s1,9.38
6,CCOC(=O)C1=C(C)Nc2ccc(C)cc2S1,11.3
7,CC(C)N1CCN(Cc2ccc3nsnc3c2)CC1CCO (centres unmarked),8.66
8,CCOC(=O)CNC(=O)Cn1cnc2sc(C)c(S(=O)(=O)N3CCOCC3)c2c1=O,16.4
9,Cc1ccc2c(c1)N(CC(=O)NCCCN1CCCCC1C)C(=O)c1cccnc1O2 (centres unmarked),13.7
10,O=C(NCc1ccc2c(c1)OCO2)C1CCN(C(=O)Nc2ccc(Cl)cc2)CC1,-28.6
11,C#CCOCCOCCOCCNc1nc(N2CCN(C(=O)[C@H]([C@@H](C)CC)n3cc([C@@H](N)Cc4ccc(O)cc4)nn3)CC2)nc(N2CCN(C(=O)[C@H](Cc3cc4ccccc4[nH]3)n3cc([C@@H](N)C(C)CC)nn3)CC2)n1.Cl (some centres unmarked),3.33
12,O=C(Nc1ccccc1Oc1ccccc1)C1CCCC1,6.32
13,CS(=O)(=O)N(Cc1ccccc1)c1ccccn1,21.1
14,COc1ccc(CCNC(=O)C2CCC(CNc3c(N4CCCC4)c(=O)c3=O)CC2)cc1OC (centres unmarked),9.2
15,C/C(CC(=O)Nc1ccc(Cl)cc1C(F)(F)F)=N\NC(=O)c1cccs1,-10.7
16,COc1cccc(/C=N/NC(=O)c2c(C)nc3ccc(Cl)cn23)c1OC,26.2
17,COc1ccc(-n2c(C)cc(/C=N/Nc3nc(N4CCOCC4)nc(N4CCOCC4)n3)c2C)cc1,-7.03
18,N#Cc1ccc(-c2cn(-c3ccccc3)c3[n+]2CCCS3)cc1.[Br-],16.3
19,CCCCN(C1CCS(=O)(=O)C1)S(=O)(=O)c1cccs1 (centres unmarked),-7.11
20,c1ccc2c(CNCCN3CCOCC3)cccc2c1,-4.74
21,COC(=O)[C@H](CCSC)NC(=O)NCCc1ccccc1F,15.4
22,COc1ccc(NC2CCCN(C(=O)CN3CCOC3=O)C2)cc1OC (centres unmarked),9.01

row,SMILES,"hERG current change (%, negative = inhibition) at 10uM [%]"
1,COc1cc(C2=NOC(C(=O)N3CCCCCC3)C2)cc(OC)c1OC (centres unmarked),3.06
2,O=C(NCC1CCCO1)c1cncc(Br)c1 (centres unmarked),24.3
3,COc1cc(C(=O)Nc2nc(-c3cc(C)ccc3C)c(C)s2)ccc1OCC(=O)Nc1ccc(F)cc1,12.4
4,Cc1ccc(C(=O)C2(C)N(O)C(C)C(c3cccs3)=[N+]2[O-])cc1 (centres unmarked),2.14
5,CC(Sc1nnc(N)s1)C(=O)Nc1nccs1 (centres unmarked),17.8
6,CCCN1CCN(C(=O)CN2C(=O)COc3ccc(S(=O)(=O)N(CC)CC)cc32)CC1,4.88
7,Cc1nn(C)c(C)c1S(=O)(=O)NC1CCCc2ccccc21 (centres unmarked),-5.78
8,Cn1cc(C(=O)N2CCCCC2)c(=O)c2cc(S(=O)(=O)N3CCCC3)ccc21,11.5
9,COc1ccc(-c2oc3ncnc(NCCCO)c3c2-c2ccc(OC)cc2)cc1,4.27
10,O=C(O)C1CC=CCC1C(=O)NCc1ccccc1 (centres unmarked),0.486
11,c1coc(-c2nc(-c3ccco3)c(-c3ccco3)nc2-c2ccco2)c1,-5.1
12,COc1ccc(C(=O)C2CCCN(Cc3ccc(C)s3)C2)c(OC)c1 (centres unmarked),-53.7
13,CCCCN(C(=O)CSc1nnc(Nc2ccc(C)c(C)c2)s1)c1c(N)n(Cc2ccccc2)c(=O)[nH]c1=O,-0.113
14,CCCn1c(N)c(N(CCOC)C(=O)c2cc3c(s2)CCC(CC)C3)c(=O)[nH]c1=O (centres unmarked),-18.7
15,CCn1c(NC(=O)/C=C/c2ccc(F)cc2)nc2ccccc21,-8.36
16,COc1ccccc1C(=O)Nc1ccc(C)cc1C(=O)c1ccccc1,4.34
17,Cc1noc(NS(=O)(=O)c2ccc(N/C=C/C(=O)c3ccccc3)cc2)c1C,18.7
18,COc1cccc(NC(=O)Nc2cc(C)on2)c1,24.9
19,Cc1ccc(Cl)cc1NC(=O)COC(=O)CN1C(=O)C2CCCCC2C1=O (centres unmarked),-7.96
20,O=C(CSc1nnc(-c2cccs2)n1-c1ccccc1)N1CCOCC1,-20.2
21,O=C(COC(=O)C1CC(=O)N(Cc2ccccc2)C1)c1ccc(Br)cc1 (centres unmarked),-25.8
22,C/C(=N\NC(=O)c1cccc(F)c1)c1ccc(NC(=O)Cc2ccccc2)cc1,11
